For one assay, the system named is BxPC3 cells. The assay is classed as cell-based. The conditions noted are these: 24 hour; 20 μM Lapatinib.
In the next assay the test system is HCI-012 cells. The assay is classed as cell-based, human. The conditions noted are these: 24 hour.

On to `CS(=O)(=O)CCNCc1ccc(-c2ccc3ncnc(Nc4ccc(OCc5cccc(F)c5)c(Cl)c4)c3c2)o1` [Lapatinib], for which the “HER1-3 expression, or Akt or Erk phosphorylation” value in the assay with BxPC3 cells is on record as “no significant effect”. In the assay on HCI-012 cells, the Akt phosphorylation result is “partially reduced”; the “EGFR, HER2, or HER3 levels” value is “did not alter”; the Erk phosphorylation result is listed as “strongly suppressed”; the “RBF3 upregulation of the ER stress markers GRP78, ATF4, XBP1s, or CHOP, with Lapatinib” value is listed as “did not influence”. In addition, the “expression of ER stress markers” value with HCI-012 cells is reported as “nor did it alter”.

Source of the values: patent US10813904B2, “Small molecule anticancer agents” (University of Florida Research Foundation, Incorporated, priority 2017, dated 2020).
